# Data taken from the supplement of paper PMC12217912.
# Some of the results follow. The full chains were built here from the parent and the listed change. Values near 0.05 are background.
# B1: TEV protease; numbered along this chain (parent)
# chain: MGESLFKGPRDYNPISSSICHLTNESDGHTTSLYGIGFGPFIITNKHLFRRNNGTLVVQSLHGVFKVKDTTTLQQHLVDGRDMIIIRMPKDFPPFPQKLKFREPQREERICLVTTNFQTKSMSSMVSDTSCTFPSGDGIFWKHWIQTKDGQCGSPLVSTRDGFIVGIHSASNFTNTNNYFTSVPKNFMELLTNQEAQQWVSGWRLNADSVLWGGHKVFMVKPEEPFQPVKEATQL
# Variants of: B1
# Assay: raw area under fraction-flipped curve 0-4 h after induction (AUC4h, not background-subtracted), DNA-recorder readout of cleavage of the substrate (dimensionless); higher = more cleavage of the substrate by the protease variant
# Details: temperature: 34 °C; time window: 0-4 h after rhamnose induction
# 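Further: Bxb1 expression induced with 0.2% (w/v) L-rhamnose at OD600 near 0.5, cultures sampled hourly, flipped fraction per protease–substrate barcode pair counted by paired-end Illumina sequencing.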
Variant,area with substrate ENAYFQS,area with substrate ENCYFQS,area with substrate ENDYFQS,area with substrate ENEYFQS,area with substrate ENHYFQS,area with substrate ENKYFQS,area with substrate ENMYFQS,area with substrate ENNYFQS,area with substrate ENPYFQS,area with substrate ENQYFQS,area with substrate ENRYFQS,area with substrate ENSYFQS,area with substrate ENTYFQS,area with substrate ENVYFQS,area with substrate ENWYFQS,area with substrate ENYYFQS,area with substrate ENFYFQS,area with substrate ENGYFQS,area with substrate ENIYFQS
G214A,0.0589,0.0639,0.0561,0.0635,0.0086,0.0665,0.059,0.0561,0.0606,0.0447,0.0579,0.0673,0.0565,0.0743,0.0522,0.0632,,,
H215E,0.0381,0.0594,,0.0611,0.0592,0.0846,,0.0531,,0.0648,0.0509,0.0647,0.0597,0.0515,,,0.04,0.0665,0.048
H215R,0.0587,0.054,0.0602,0.0597,0.0431,,0.0458,0.0771,0.0624,0.0596,,0.0602,,0.0559,,,0.0666,0.0426,0.14
F218L,0.0621,0.0465,0.0608,0.0657,0.0676,0.0702,,0.0588,,0.0581,0.0575,0.0625,0.0501,0.0728,0.0642,0.0952,,0.0473,0.103
V220A,0.066,0.0566,0.0657,,0.0567,0.0598,0.0652,0.0606,0.0437,0.0593,0.0395,0.0684,0.0774,0.0697,0.0683,,0.0519,0.0599,
P222Q,0.0609,0.0696,0.0809,0.055,0.0655,0.0628,0.0827,,0.0596,0.0569,0.0619,0.0612,0.0598,0.0748,0.0508,,0.0581,0.0666,0.11
P222Y,0.0592,0.0713,0.0583,0.0471,0.114,,,,,0.0576,0.0651,0.0532,0.0819,0.0755,0.0622,0.0643,,,0.108
E223C,0.0675,0.0712,0.0532,0.0438,,0.0778,,0.0465,0.0583,0.0591,,0.0897,0.0526,0.0398,,0.0665,0.0632,0.0643,0.119
E223R,0.0631,0.0654,0.0547,0.0718,,0.0641,0.0779,0.0911,0.0615,0.0604,0.0647,0.0599,0.0554,0.0714,,0.0562,0.0569,0.0802,0.0952
F226A,0.0744,,,,,,,0.0774,,0.0616,0.062,0.0574,,,,,0.0671,0.0693,
F226K,0.0521,0.0564,0.0601,0.0501,0.0742,0.0534,,0.0661,,0.0662,,0.0606,0.0718,0.0742,0.0587,0.0538,0.0781,0.0601,
K230L,0.0702,0.0398,0.0825,0.0656,,0.0605,0.0648,0.0428,,0.0688,0.0636,0.0563,0.073,,0.007,,,,0.0949
K230T,0.0875,0.0686,0.0751,0.066,0.0641,0.0566,0.0875,0.0432,,0.0634,0.0577,0.0816,0.0764,0.0344,0.066,0.0669,0.0834,,0.0981
K230W,0.0633,,0.083,0.046,0.0663,0.0664,,0.0561,,0.0567,0.0491,0.0696,0.0573,0.075,0.0497,0.0458,0.0544,0.0701,0.104
Q234R,0.0387,,0.0615,0.061,0.0658,0.0657,,0.0571,0.0672,0.0684,0.0675,0.0578,0.0617,,,,,0.0899,0.0662
P9M,,0.0773,0.0593,,,,0.0752,,0.0642,0.0756,,0.043,0.0717,0.0934,,,0.0243,,
I19C,,0.0645,,0.0629,,0.0468,,0.0617,0.0457,0.0519,0.0491,0.0657,0.0588,0.098,0.0331,0.0601,0.0486,0.071,0.0988
C20V,,0.0673,0.0581,0.0613,,0.0633,,,0.0588,0.0593,0.0629,0.0945,0.0678,0.101,0.0588,0.0553,0.0722,0.0644,0.1
S26A,,0.0736,0.0641,0.0615,0.0899,0.07,0.0803,0.067,0.0679,0.0533,0.0282,0.0527,0.0665,0.0728,0.0471,0.0594,0.0537,0.063,
S26T,,0.0628,0.0636,0.0501,0.0547,0.0607,0.0689,0.0612,0.0537,0.062,0.0548,0.0547,0.0602,0.065,,0.0305,,0.0633,0.103
G28E,,0.0699,0.0649,0.0552,,0.0553,0.0462,0.084,0.0693,0.0527,0.0464,0.0612,,0.078,,,0.0685,0.0506,
G37E,,0.0493,0.0579,0.0577,0.0428,0.0304,0.0491,0.069,0.0615,0.0369,0.0469,0.0497,0.0399,,,,0.0386,0.0506,0.0429
F41L,,0.0592,0.0628,0.0738,0.043,,,0.0547,,,0.0463,0.0578,0.0651,0.0647,,,0.0589,0.0622,0.119
I43P,,0.0477,,0.0464,0.0293,0.0432,0.0724,,,0.049,0.0492,0.0484,0.0491,0.0378,,0.035,0.0446,0.0504,0.0375
R51L,,0.0703,0.0626,0.0687,,,0.0885,0.0566,,0.0573,0.072,0.146,0.0634,,,,0.0552,0.0708,
L61D,,0.0692,0.0619,0.0684,0.0799,0.0632,0.0952,,,0.0585,0.0665,0.0702,0.0457,0.0782,0.0571,0.078,0.0602,,0.1
F65T,,0.0629,0.0583,0.05,,0.054,0.0797,0.0606,0.0276,0.0508,0.0592,0.0412,,0.0783,,0.0485,,0.0597,0.0961

Variant,area with substrate ENAYFQS,area with substrate ENCYFQS,area with substrate ENDYFQS,area with substrate ENEYFQS,area with substrate ENHYFQS,area with substrate ENKYFQS,area with substrate ENMYFQS,area with substrate ENNYFQS,area with substrate ENPYFQS,area with substrate ENQYFQS,area with substrate ENRYFQS,area with substrate ENSYFQS,area with substrate ENTYFQS,area with substrate ENVYFQS,area with substrate ENWYFQS,area with substrate ENYYFQS,area with substrate ENFYFQS,area with substrate ENGYFQS,area with substrate ENIYFQS
D69C,,0.0623,,0.0861,,0.0471,0.0767,0.0613,,0.0612,0.0546,0.115,0.0282,0.0735,,0.0608,0.0603,0.0838,0.0973
D69I,,0.0673,,,0.0606,,,,0.0511,0.0439,,,,,0.0042,0.0596,,,0.0739
T70A,,0.0743,0.0527,0.0766,,,0.0709,,0.0647,0.0612,,0.0565,,,,0.0805,,0.0079,0.0967
H76I,,0.0659,0.0562,,0.0567,,0.067,,,0.0717,,,,,0.0606,,0.0629,0.0472,
D82F,,0.0567,0.0575,,,0.0415,0.0458,0.0568,0.0616,0.0602,0.0479,,0.07,0.0251,0.0054,0.0607,0.0542,0.053,
D82W,,0.0441,,0.0556,0.0672,,0.0565,0.0479,0.0601,0.0522,0.0421,0.0516,,0.0626,,,0.0601,0.0785,0.0589
I85D,,0.0459,,0.0397,0.0444,,0.0243,,,0.0538,0.045,,,,,,,,
F95V,,0.0629,0.0643,0.0447,0.054,,0.0796,,0.0474,0.047,,,0.0635,,,0.0551,,,0.08
Q105A,,0.0754,0.0566,0.0579,0.0557,0.0566,0.0758,0.0617,0.0599,0.0564,0.0347,0.0631,0.0598,,,0.0659,0.07,,0.112
T114V,,0.0728,0.059,0.0647,,0.0578,,0.0505,0.0597,0.0649,0.0648,0.0537,0.0654,0.0659,0.064,0.0551,0.0501,0.0447,0.113
N116K,,0.0542,0.0748,0.0574,,,,0.0706,,0.0607,0.0435,0.115,,,,,0.0542,0.0663,
Q118S,,0.0726,0.0589,0.0655,,,,0.0722,,0.0622,0.0723,0.066,,0.0671,0.0128,0.066,0.0608,0.0649,
S124Q,,0.0633,0.0635,0.046,0.0513,0.0614,,0.0544,0.0543,0.0502,0.0646,0.0692,0.0761,0.0671,,0.0867,0.0729,0.0605,0.0742
S130C,,0.064,,,,,,0.0464,,0.0591,,0.0467,0.0799,,,,0.0692,,
S130G,,0.0566,0.0588,0.0516,0.0707,,,,0.0656,0.0507,0.0668,0.0554,,0.0922,0.0515,0.0656,,,0.115
F133Q,,0.0642,0.0568,,0.0797,0.0552,,0.061,,0.0568,,0.0633,,0.0846,,0.0576,,,
D137K,,0.0612,0.057,0.0578,,0.0669,0.0838,,,0.0601,,0.0717,,0.0785,,,,,
I139F,,0.076,,0.0627,,0.0848,0.112,0.0759,,0.058,0.0598,0.0613,,0.0976,,0.0412,,0.056,0.128
I139M,,0.0557,0.0683,0.0457,0.0496,,0.0701,0.048,0.0665,0.0593,0.0677,0.0609,0.0505,0.0813,,,0.0411,0.0644,
I139Y,,0.069,0.0685,0.0573,0.0611,0.0719,,,,0.0483,0.0627,0.0599,0.0645,0.0832,0.0095,,0.0803,0.0586,0.123
F140A,,0.0459,0.0571,0.0638,,,0.0179,,0.0847,,,0.0571,,,,,,,0.0638
P155Y,,0.07,,0.0559,,0.0511,,0.0551,,0.0574,0.0559,0.057,0.0512,0.0502,,,,,0.045
L156I,,0.0672,0.0615,0.068,0.0501,0.0681,0.0891,0.0355,,0.0419,0.0619,0.0585,0.0625,0.0576,0.066,,0.0566,0.0635,0.102
I164T,,0.0377,0.0568,0.0616,,0.0661,,0.0566,0.0619,,,0.0566,,0.0578,,,0.0607,,
F173L,,0.0722,0.0679,0.0661,0.0551,0.0262,,0.065,,0.0665,,0.0599,,,,0.0537,,,0.122
F173S,,0.0404,0.0932,0.0776,0.0656,0.0711,,0.0664,0.0861,0.0621,0.0634,0.0858,0.0653,0.0685,,0.0676,0.0554,0.054,
Y179L,,0.0737,0.0486,0.0407,,,,0.0593,0.0691,,,0.063,,0.0553,,,0.12,,0.0828
